# Measured values published in PubChem BioAssay AID1345082 (National Center for Advancing Translational Sciences (NCATS), 2018).
# The whole screen tested about 94,000 compounds, of which about 4,000 (4.3%) were called active. The shares of active, inactive and inconclusive entries below differ from those in the screen. Calls come from the whole dose curve; as a rule, active = well fitted inhibition curve with a large enough effect; inconclusive = small, poorly fitted or top-dose-only effect; inactive = no such curve, though single readings can be large or run the other way. Potencies beside an inconclusive call are fits to weak or partial responses and may not hold up.
# Test: Cytotoxic Profiling in NIH 3T3 Cell Line of Diverse Libraries Using Quantitative High-Throughput Screening; note: nearly all actives have a fitted effect of over 55% in size
# Conditions: NIH 3T3 viability, CellTiter-Glo ATP luminescence, 48-72 h; series mostly up to 96.7 µM
# Procedure, shortened: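 Luminescent ATP readout (CellTiter-Glo, 10 min RT) after 48 or 72 hr compound exposure of NIH 3T3 cells seeded at 400 cells/well in 1536-well format; quantitative HTS.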
# Potency is the fitted concentration of half-maximal effect; tags give direction and shape of the fitted curve.
row,Compound,Potency
1,Cc1cn2nc(C(=O)N3CCCCC3)cc2c(N(C)Cc2ccccc2)n1,"inconclusive: 25.1 µM [inhibitor, full curve]"
2,COc1ccc(C(=O)N[C@@H]2CCC[C@@H]2C(=O)NCCN2CCCC2)cc1,inactive
3,CC(=O)c1cc(CC(=O)N[C@@H]2COCC[C@@H]2OCc2ccccc2)cs1,inactive
4,CC(C)CC(=O)N1CC(c2nnc(C(C)C)o2)C2(CCOCC2)C1 (configuration not stated),inactive
5,Cc1ccc(C(=O)N2CCCC(n3cc(-c4nc(-c5ccccc5)no4)nn3)C2)s1 (configuration not stated),"inconclusive: 35.5 µM [inhibitor, partial curve, poor fit]"
6,CC(=O)N1CCN(C(=O)c2ccc3nnc(-c4ccc(OC(F)(F)F)cc4)n3c2)CC1,inactive
7,O=C1CC2(CCN(CC3CC3)CC2)Oc2ccccc21,"inconclusive: 100 µM [inhibitor, partial curve, poor fit]"
8,OCc1ccc(CN2Cc3[nH]cnc3C[C@H]2c2nc(-c3ccc4ccccc4c3)no2)o1,active: 79.4 µM
9,CCOc1ccccc1N1CCN(C(=O)c2ccc3c(c2)N(C)C2CCCCN2C3=O)CC1 (configuration not stated),"inconclusive: 50.1 µM [inhibitor, partial curve, poor fit]"
10,O=C(c1nccc2ccccc12)N1CCc2c(nc(-c3ccc(F)cc3)[nH]c2=O)C1,active: 14.1 µM
11,COc1ccc(-c2cc(C[C@H]3CNCC[C@H]3CC(=O)N(C)Cc3ccccc3)no2)cc1,active: 35.5 µM
12,O=C(C1CCCCCC1)N1CCC(n2cc(C3CCCCC3)nn2)CC1,"inconclusive: 50.1 µM [inhibitor, partial curve, poor fit]"
13,CC1(CNCc2ccccc2)COc2ccc(C(=O)Nc3cccc(Cl)c3)cc2N1 (configuration not stated),"inconclusive: 56.2 µM [inhibitor, partial curve, poor fit]"
14,CCOc1ccccc1NC(=O)Cn1c(N(C)Cc2ccccc2)nc(C)cc1=O,"inconclusive: 35.5 µM [inhibitor, partial curve, poor fit]"
15,CC1CCN(C(=O)C[C@@H]2c3nc(NC(=O)c4ccc(F)cc4)sc3C[C@@H]3[C@](C)(CO)[C@H](O)CC[C@]32C)CC1,active: 79.4 µM
16,COc1ccccc1CNC[C@H]1Cn2cc(-c3ccccc3OC)nc2CO1,active: 79.4 µM
17,Cc1nn(-c2ccc(F)cc2)c(Oc2ccccc2F)c1CCC(=O)N(C)C(C)C,"inconclusive: 44.7 µM [inhibitor, partial curve, poor fit]"
18,Cc1ccsc1C(=O)N1CCC[C@H](n2c(=O)n(CC3CC3)c3cccnc32)C1,"inconclusive: 44.7 µM [inhibitor, partial curve, poor fit]"
19,O=C(NCc1ccccc1Cl)C1CCCN(c2ccnc3ccnn23)C1 (configuration not stated),"inconclusive: 31.6 µM [inhibitor, full curve]"
20,CCn1ccc(C(=O)N2CCC3(CC2)c2[nH]c4ccccc4c2CCN3C)n1,"inconclusive: 31.6 µM [inhibitor, full curve, poor fit]"
21,CCOc1cc(=O)n2c(c1C(=O)Nc1cccc(SC)c1)CCCC2,inactive

row,Compound,Potency
1,COC(=O)[C@@H]1Cc2c([nH]c3ccccc23)[C@H]2C[C@@H](NCCO)C[C@@H](c3cccc(OC)c3)N21,active: 28.2 µM
2,Cc1nc2c(c(NCCc3cnn(-c4ccccc4)c3)n1)CCNCC2,"inconclusive: 22.4 µM [inhibitor, full curve, poor fit]"
3,O=[S+]([O-])(c1ccccc1)N1CC2(COCCN(Cc3ccc(F)cc3F)C2)C1,"inconclusive: 89.1 µM [inhibitor, partial curve, poor fit]"
4,Cc1cc(C#N)c(-c2ccccc2C(=O)N(C(C)C)C(C)C)nc1C,inactive
5,O=C(Nc1ccc(Oc2ccccc2)cc1)O[C@@H]1CO[C@H]2[C@@H]1OC[C@@H]2NS(=O)(=O)c1ccc(Cl)cc1,active: 31.6 µM
6,COc1ccc(F)cc1-c1cccc(C(=O)NCCNC(=O)Nc2ccc(Cl)cc2)c1,active: 31.6 µM
7,Cc1ccc(C(=O)N2CCC(n3cc(-c4nc(-c5ccccc5)no4)nn3)CC2)cc1,inactive
8,c1ccc(CCCCn2ccnc2-c2cc3n(n2)CCCNC3)cc1,"inconclusive: 56.2 µM [inhibitor, partial curve, poor fit]"
9,Cc1ccc(-n2nc(C)c([C@@H]3C=C[C@@H](NC(=O)NC4CCCCC4)C3)c2C)cc1Cl,"inconclusive: 17.8 µM [inhibitor, partial curve, poor fit]"
10,COC(=O)[C@@H]1Cc2c([nH]c3ccccc23)[C@H]2C[C@H](NCc3cccs3)C[C@@H](c3ccc(F)cc3)N21,active: 22.4 µM
11,O=C(CCc1ccccc1)N1CCC2(CC1)CC(N(C(=O)c1ccccc1)C1CC1)CCO2 (configuration not stated),"inconclusive: 50.1 µM [inhibitor, partial curve, poor fit]"
12,CCCN(C)c1nccnc1OC1CCN(C(=O)c2cccc(OC)c2OC)C1 (configuration not stated),"inconclusive: 50.1 µM [inhibitor, partial curve, poor fit]"
13,CN(C)C(=O)N1CCc2nc(-c3ccc(Cl)cc3)nc(-c3ccccc3)c2C1,inactive
14,Cc1noc(C)c1CN1C[C@H]2[C@H](C1)[S+](=O)([O-])C(C)(C)C(=O)N2Cc1ccccc1F,"inconclusive: 50.1 µM [inhibitor, single point]"
15,C[C@H](C(=O)NCCN1CCOCC1)C1CC[C@@]2(C)Cc3sc(-c4ccccc4)nc3[C@@H](C)[C@@H]2[C@H]1O (some centres not stated),"inconclusive: 50.1 µM [inhibitor, partial curve, poor fit]"
16,CC1=C[C@@H](CNC2CCOCC2)[C@H](C(C)C)C[C@H]1Cc1nc2ccccc2[nH]1,"inconclusive: 100 µM [inhibitor, single point]"
17,CC1(c2ccccc2)N(Cc2ccccc2C#N)C(=O)OC12CCN(Cc1ccccc1F)CC2 (configuration not stated),"inconclusive: 35.5 µM [inhibitor, partial curve]"
18,Cc1ccc(C(=O)N2CCC(Cc3nc(-c4cnccn4)no3)CC2)cc1C,"inconclusive: 50.1 µM [inhibitor, partial curve, poor fit]"
19,Cc1nn(C)c(C)c1C(C)NC(=O)c1ccc(CC2CCN(C(=O)C3CC3)CC2)cc1 (configuration not stated),"inconclusive: 35.5 µM [inhibitor, partial curve, poor fit]"
20,Clc1cc(NCc2ccccn2)n2nccc2n1,"inconclusive: 15.8 µM [inhibitor, full curve, poor fit]"
21,CC1(C)[C@H](Cc2cc(CC3CCCCC3)on2)C[C@@H]1NS(C)(=O)=O,"inconclusive: 100 µM [inhibitor, partial curve]"

row,Compound,Potency
1,COCc1cc(NCCSCc2ccccc2C)ncn1,"inconclusive: 17.8 µM [inhibitor, partial curve, poor fit]"
2,COCC(=O)N1CCCC(c2nn(-c3ccc(F)cc3)c(=O)[nH]2)C1 (configuration not stated),inactive
3,COc1ccc2[nH]c(C[C@@H]3C[C@@H](C(C)C)[C@H](CNC4CCN(C)CC4)C=C3C)nc2n1,"inconclusive: 44.7 µM [inhibitor, partial curve, poor fit]"
4,O=C(O)c1cccc2c1CCN2C(=O)c1ccc(F)cc1,"inconclusive: 35.5 µM [inhibitor, partial curve]"
5,CCOc1cccc(CN2CCCC23Cc2ccccc2CNC3=O)c1 (configuration not stated),"inconclusive: 70.8 µM [inhibitor, single point]"
6,O=C(NCc1ccccc1)[C@@H]1Cc2nc[nH]c2CN1Cc1cccc(OC(F)(F)F)c1,"inconclusive: 50.1 µM [inhibitor, partial curve, poor fit]"
7,COc1ccccc1Nc1ccnc(N2CCC(N[S+](=O)([O-])c3ccccc3)CC2)n1,active: 31.6 µM
8,CN1C[C@H](C(=O)N2CCN(c3ccccn3)CC2)C[C@H]1c1cccc(C(F)(F)F)c1,"inconclusive: 89.1 µM [inhibitor, partial curve, poor fit]"
9,Cc1cccnc1C(C)n1cc(-c2ccccc2-c2ccco2)nn1 (configuration not stated),inactive
10,CCOC(=O)[C@@H]1CN(C(=O)c2cccc3c2OC(F)(F)O3)[C@H]2c3cccc(F)c3O[C@@H]12,"inconclusive: 39.8 µM [inhibitor, partial curve]"
11,COCCN1CCCCCC(O)c2cc(C(=O)NCc3ccccc3OC)ccc21 (configuration not stated),"inconclusive: 56.2 µM [inhibitor, single point]"
12,COCCNC(=O)c1nc2sccn2c1-c1ccc(OC)cc1,inactive
13,COc1ccc(-c2cn(C)c(=O)n3cc(CN(C)C)nc23)cc1OC,"inconclusive: 79.4 µM [inhibitor, partial curve]"
14,COc1cccc(CN2CCNc3cc(Nc4cccnc4)ncc3C2)c1,"inconclusive: 10 µM [inhibitor, full curve, poor fit]"
15,COc1ccc2c(c1)OCC(CNC(=O)c1scc3c1OCCO3)C2 (configuration not stated),"inconclusive: 35.5 µM [inhibitor, full curve, poor fit]"
16,CC(C)C(=O)N1Cc2ccccc2NC(=O)C12CCNC2 (configuration not stated),inactive
17,COc1cc(-c2cc3c(nc2-c2ccccc2)nc(C(=O)NC2CCN(C)CC2)n3C)ccn1,"inconclusive: 28.2 µM [inhibitor, full curve, poor fit]"
18,CCC(=O)N1CCc2c(sc3ncnc(Nc4ccccc4)c23)C1,"inconclusive: 50.1 µM [inhibitor, partial curve, poor fit]"
19,O=C(c1ccccc1)N1CCc2c(n(Cc3ccccc3)n(-c3ccccc3)c2=O)C1,"inconclusive: 10 µM [inhibitor, full curve, poor fit]"
20,O=C(c1ccccc1F)N1CCC[C@H]1c1nc(-c2ccccc2)no1,inactive
